Laboratory results as given in PubChem BioAssay AID2147 (National Center for Advancing Translational Sciences (NCATS), 2009).
The whole screen tested about 230,000 compounds, of which about 3,600 (1.6%) were called active. The shares of active, inactive and inconclusive entries below differ from those in the screen. Calls follow the shape of the dose curve; as a rule, active = well fitted inhibition curve with a large enough effect (not every such curve was filed as active); inconclusive = small, poorly fitted or top-dose-only effect, or another doubt; inactive = no such curve, though single readings can be large or run the other way. Potencies beside an inconclusive call are fits to weak or partial responses and may not hold up.

biological target: Lysine-specific demethylase 4E (Homo sapiens) (UniProt B2RXH2); assay: qHTS Assay for Inhibitors of Human Jumonji Domain Containing 2E (JMJD2E); details: JMJD2E catalytic domain, FDH-coupled NADH fluorescence (FDH is formaldehyde dehydrogenase); series mostly up to 57.1 µM; activity change, negative = inhibition: at the top concentration
Also: nearly all actives have a fitted effect of over 50% in size.
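For activity change, negative = inhibition in this document: 0% = wells with enzyme and -100% = buffer wells without enzyme.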
Potency is read from the fitted curve at half-maximal effect; tags tell the direction and shape of the fitted curve.

UniProt B2RXH2, sequence (B2RXH2 whole entry, looked up, the tested form may be a part): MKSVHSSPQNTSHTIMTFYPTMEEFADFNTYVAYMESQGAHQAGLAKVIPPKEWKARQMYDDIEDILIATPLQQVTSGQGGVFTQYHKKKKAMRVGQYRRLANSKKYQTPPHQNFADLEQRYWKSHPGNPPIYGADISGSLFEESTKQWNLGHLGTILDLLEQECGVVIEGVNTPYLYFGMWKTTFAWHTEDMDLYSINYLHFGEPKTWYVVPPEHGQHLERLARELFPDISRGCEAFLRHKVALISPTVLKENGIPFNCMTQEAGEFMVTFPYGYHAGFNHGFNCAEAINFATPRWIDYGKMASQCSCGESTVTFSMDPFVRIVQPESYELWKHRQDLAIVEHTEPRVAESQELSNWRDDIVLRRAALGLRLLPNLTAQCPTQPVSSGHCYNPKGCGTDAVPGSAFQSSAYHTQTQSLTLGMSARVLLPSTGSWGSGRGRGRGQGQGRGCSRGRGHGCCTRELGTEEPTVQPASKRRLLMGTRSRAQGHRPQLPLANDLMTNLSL

Row | SMILES | Potency | activity change, negative = inhibition
1 | O=[N+]([O-])c1ccc(OCCN2CCCCCC2)cc1 | inconclusive: 25.1 µM [inhibitor, single point] | –
2 | CCOC(=O)c1sc(NC(=O)c2ccccc2F)c(C(N)=O)c1C | inconclusive: 35.5 µM [inhibitor, partial curve] | –
3 | COC(=O)CSc1nc(N)c(C#N)c(-c2ccco2)c1C#N | inconclusive: 39.8 µM [inhibitor, single point] | –
4 | O=c1oc2ccccc2c(Nc2cccc3cccnc23)c1[N+](=O)[O-] | inconclusive: 39.8 µM [inhibitor, single point] | –
5 | CC(C)(C)OC(=O)N1CCC[C@H]1c1nnc(SC/C=C/c2ccccc2)o1 | – | inactive: -6.05%
6 | COc1ccc(C(=O)N(Cc2ccccc2)Cc2cc3cc4c(cc3[nH]c2=O)OCCO4)cc1 | inconclusive: 8.91 µM [inhibitor, partial curve] | –
7 | O=C(c1ccco1)N1CCN(C(c2ccc(F)cc2)c2nnnn2Cc2cccs2)CC1 (centres undefined) | – | inactive: -8.68%
8 | COc1cc(C(=O)N2CCN(S(=O)(=O)c3cccs3)CC2)cc(OC)c1C | – | inactive: 0.738%
9 | CCc1cc2c(=O)c(-c3nc4ccccc4n3C)c(C)oc2c(CN2CCOCC2)c1O | inconclusive: 28.2 µM [inhibitor, partial curve] | –
10 | COc1ccc(CC(=O)Nc2oc(-c3ccccc3)c(-c3ccccc3)c2C#N)cc1OC | inconclusive: 35.5 µM [inhibitor, partial curve] | –
11 | COc1cc(NS(C)(=O)=O)ccc1Nc1c2ccccc2nc2ccccc12 | inconclusive: 28.2 µM [inhibitor, partial curve] | –
12 | CN(C)c1cccc(C(=O)OCC(=O)N2CCc3ccccc3C2)c1 | inconclusive: 31.6 µM [inhibitor, partial curve] | –
13 | N#Cc1nc(-c2ccc(Cl)cc2)oc1NCC1CCCO1 (centres undefined) | inconclusive: 28.2 µM [inhibitor, partial curve] | –
14 | CS(=O)(=O)Nc1ccc(C2=NN(C(=O)C3CCCCC3)C(c3cccs3)C2)cc1 (centres undefined) | inconclusive: 28.2 µM [inhibitor, partial curve] | –
15 | Cc1ccc(CCCOC(=O)C[N+]2(C)CCCCC2)cc1 | inconclusive: 0.447 µM [inhibitor, full curve, poor fit] | –
16 | CCOC(=O)c1ccc(Nc2nnc3nc(C)cc(C)n23)cc1 | – | inactive: 9.05%
17 | S=C(NCc1ccc(Cl)cc1)Nc1ccc(Cl)cc1Cl | – | inactive: -1.92%
18 | CCOc1ccc2[nH]c(=O)c(CN(C(=O)N3CCOCC3)C3CC3)cc2c1 | inconclusive: 7.94 µM [inhibitor, full curve] | –
19 | Cn1cc(Br)c(C(=O)NC(=S)Nc2ccc(S(N)(=O)=O)cc2)n1 | – | inactive: 1.31%
20 | O=S(=O)(CCc1ccncc1)C1Cc2cccc3cccc1c23 (centres undefined) | inconclusive: 35.5 µM [inhibitor, single point] | –
21 | Cn1cnc2c(N3CCCCC3)nccc21 | inconclusive: 17.8 µM [inhibitor, partial curve] | –
22 | COc1ccc(S(=O)(=O)NCc2cn3c(C)csc3n2)cc1F | inconclusive: 3.98 µM [inhibitor, full curve] | –

Row | SMILES | Potency | activity change, negative = inhibition
23 | CCOc1cc(C(=O)N2CCc3cc(OC)c(OC)cc3C2)ccc1OC(F)F | inconclusive: 39.8 µM [inhibitor, single point] | –
24 | Cc1ccccc1NC(=O)c1ccccc1O | inconclusive: 25.1 µM [inhibitor, single point] | –
25 | Cc1ccnc(SCc2cn3c(C)cc(C)nc3n2)n1 | inconclusive: 31.6 µM [inhibitor, partial curve] | –
26 | O=C(N/N=C/c1cc([N+](=O)[O-])ccc1O)C1CC1 | active: 28.2 µM | –
27 | CN(C)CCCN(C(=O)c1ccc2c(c1)CCCC2)c1nc2ccc(F)cc2s1 | – | inactive: 2.03%
28 | Cc1sc(NC(=O)C2CCCO2)c(C(N)=O)c1C (centres undefined) | inconclusive: 14.1 µM [inhibitor, partial curve] | –
29 | O=Cc1cccn1-c1nccc(-c2ccco2)n1 | inconclusive: 39.8 µM [inhibitor, single point] | –
30 | COc1ccc(Cl)cc1NC(=O)c1c(-c2ccccc2)noc1C | inconclusive: 35.5 µM [inhibitor, single point] | –
31 | COC(=O)CC1(C(=O)OC)Oc2ccc(Br)cc2C(=O)N1c1ccc(Br)cc1Cl (centres undefined) | inconclusive: 3.16 µM [inhibitor, single point] | –
32 | Cc1nn(CC(=O)Nc2ccc(C(=O)N3CCCC3)cc2)c(=O)c2ccccc12 | – | inactive: 8.59%
33 | O=C(NC(NC1CCS(=O)(=O)C1)C(=O)c1ccccc1)c1ccc(Cl)cc1 (centres undefined) | – | inactive: -13.6%
34 | N#Cc1nc(-c2ccccc2F)oc1NCCc1ccccc1 | inconclusive: 28.2 µM [inhibitor, partial curve] | –
35 | COC(=O)c1cc(NC2c3ncccc3C(=O)N2Cc2ccccc2)cc(C(=O)OC)c1 (centres undefined) | inconclusive: 39.8 µM [inhibitor, single point] | –
36 | COc1ccc(CCC(=O)NCc2cn3ccc(C)cc3n2)cc1 | inconclusive: 28.2 µM [inhibitor, partial curve] | –
37 | NC(=O)c1c(Nc2nc3c(F)cccc3s2)sc2c1CCCC2 | inconclusive: 22.4 µM [inhibitor, partial curve] | –
38 | Cc1ccc(-c2nc(-c3nccc4ccccc34)oc2-c2ccccc2)cc1 | inconclusive: 25.1 µM [inhibitor, partial curve] | –
39 | CCOc1ccc(Nc2nc(C)cc(C)c2C#N)cc1 | inconclusive: 35.5 µM [inhibitor, partial curve] | –
40 | COc1ccc(C(=O)O)cc1N1C(=O)Nc2ccccc2N1O | inconclusive: 31.6 µM [inhibitor, partial curve] | –
41 | CCn1c(-c2cc(-c3ccc(OC(C)C)cc3)nc3ccccc23)n[nH]c1=S | inconclusive: 22.4 µM [inhibitor, partial curve] | –
42 | O=c1[nH]c2ccc(N=Cc3c(O)ccc4cc(Br)ccc34)cc2[nH]1 | inconclusive: 31.6 µM [inhibitor, single point] | –
43 | O=C(Nc1ccc(N2CCN(Cc3ccccc3Cl)CC2)cc1)c1cccnc1 | inconclusive: 39.8 µM [inhibitor, single point] | –
44 | CCOC(=O)CCC(=O)Nc1ccc(S(=O)(=O)N2CCCCC2)cc1 | – | inactive: 7.93%
